# According to PMC4336329 (PLoS ONE, 2015):
# The campaign covered roughly 310,000 compounds. About 2,200 (0.71%) showed an effect of 50% or more. The effect is printed as a negative number. This is one part of the list.
# Target: human ether-à-go-go-related gene (hERG) potassium channel (human, UniProt Q12809)
# Assay: primary screen, population patch clamp on CHO cells stably expressing hERG
# human ether-à-go-go-related gene (hERG) potassium channel, sequence (Q12809 whole entry, looked up): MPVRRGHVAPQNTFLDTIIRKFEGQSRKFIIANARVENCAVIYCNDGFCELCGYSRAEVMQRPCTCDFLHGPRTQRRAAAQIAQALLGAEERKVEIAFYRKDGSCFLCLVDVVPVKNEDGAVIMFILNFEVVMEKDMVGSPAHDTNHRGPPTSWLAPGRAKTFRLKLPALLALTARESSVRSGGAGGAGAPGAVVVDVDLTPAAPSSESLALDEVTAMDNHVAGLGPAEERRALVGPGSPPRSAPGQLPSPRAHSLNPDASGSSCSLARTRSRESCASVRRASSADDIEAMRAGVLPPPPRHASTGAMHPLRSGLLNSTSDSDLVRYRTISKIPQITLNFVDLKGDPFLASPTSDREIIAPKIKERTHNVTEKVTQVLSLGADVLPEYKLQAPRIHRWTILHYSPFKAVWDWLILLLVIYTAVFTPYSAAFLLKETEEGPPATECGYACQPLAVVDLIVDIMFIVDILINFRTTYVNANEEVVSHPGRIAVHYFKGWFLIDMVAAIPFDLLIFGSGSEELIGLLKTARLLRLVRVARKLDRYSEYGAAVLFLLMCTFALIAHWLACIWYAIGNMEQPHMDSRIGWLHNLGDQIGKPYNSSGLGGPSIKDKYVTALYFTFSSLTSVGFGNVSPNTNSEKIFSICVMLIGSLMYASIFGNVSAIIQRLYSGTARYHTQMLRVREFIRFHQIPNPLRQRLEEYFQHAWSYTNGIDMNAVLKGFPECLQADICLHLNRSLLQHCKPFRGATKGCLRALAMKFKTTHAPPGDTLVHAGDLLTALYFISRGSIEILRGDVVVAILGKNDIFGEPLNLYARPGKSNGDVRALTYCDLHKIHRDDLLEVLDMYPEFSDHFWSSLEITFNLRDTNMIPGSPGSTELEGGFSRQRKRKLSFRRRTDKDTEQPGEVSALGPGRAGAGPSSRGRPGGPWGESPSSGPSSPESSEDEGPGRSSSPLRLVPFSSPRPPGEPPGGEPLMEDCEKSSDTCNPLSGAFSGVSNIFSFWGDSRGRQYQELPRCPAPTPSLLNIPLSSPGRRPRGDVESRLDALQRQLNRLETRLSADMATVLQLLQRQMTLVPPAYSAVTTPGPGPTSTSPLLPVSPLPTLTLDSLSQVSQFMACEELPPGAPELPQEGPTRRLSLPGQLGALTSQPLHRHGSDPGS
row,Compound,"hERG current change (%, negative = inhibition) at 1uM [%]"
1,COc1ccc(OCCCC(=O)OC(C)C(=O)Nc2ccccc2[N+](=O)[O-])cc1 (centres unmarked),7.99
2,COC(=O)c1ccc(N2CCN(C)CC2)c([N+](=O)[O-])c1,-12
3,Cn1c(=O)c2c(-c3ccc(OC(F)F)cc3)cc(-c3ccccc3)nc2n(C)c1=O,10.2
4,CCOC(=O)c1cc2c(ccc3nc(C)c(C)c32)[nH]c1C,1.76
5,COc1ccccc1CNC(=S)NCc1ccc(F)cc1,13.4
6,Cn1c(=O)oc2cc(S(=O)(=O)NCC3CCCO3)ccc21 (centres unmarked),6.74
7,CS(=O)(=O)NCCNc1cc(Cl)ccc1[N+](=O)[O-],11.4
8,Cc1ccc([N+](=O)[O-])cc1S(=O)(=O)Nc1ccccn1,17.1
9,O=C(NCc1ccco1)C1CN(S(=O)(=O)c2ccccc2)CCN1S(=O)(=O)c1ccccc1 (centres unmarked),-9.38
10,COc1ccc(/C=C2/C(=O)OCc3cc(OC)c(OC)cc32)c(OC)c1,8.09
11,Cc1cc(C(=O)Nc2nnc(C(F)(F)F)s2)no1,9.42
12,COc1ccc(C(=O)c2cc3cccc(OC)c3o2)cc1,10.5
13,COc1ccc(C(=O)N/N=C/C(Br)=C/c2ccccc2)cc1,9.03
14,CN(C)/C=N/c1ncn(-c2ncc(C(F)(F)F)cc2Cl)n1,9.9
15,Cc1ccc(-n2c(N)c(C#N)c(-c3ccc(Cl)cc3)c(C#N)c2=O)cc1,10.8
16,COc1cc(C(=O)OC2CC3CCC2(C)C3(C)C)ccc1OC(C)=O (centres unmarked),14.3
17,COc1ccc(N2CC(O)=C(c3nc(C)cs3)C2=N)cc1,11.3
18,COc1ccc2nc(N3C(=O)CC(Cc4cc(C)cc(C)c4)C3=O)sc2c1 (centres unmarked),17.6
19,Cc1nn(CC(=O)c2ccc(Cl)cc2Cl)c(C)[n+]1N.[Br-],9.78

row,Compound,"hERG current change (%, negative = inhibition) at 1uM [%]"
1,Cn1c(=O)c2c(nc(N/N=C/c3cccnc3)n2Cc2ccccc2)n(C)c1=O,-11.3
2,CCOC(=O)c1ccc2c(c1)nc(SC(C)C(=O)NCC1CCCO1)n2CC (centres unmarked),-7.17
3,C[C@@H]1O[C@@H](O[C@@H]2C=C3CC[C@@H]4C(CC[C@]5(C)[C@@H](c6ccc(=O)oc6)CC[C@]45O)[C@@]3(C)CC2)[C@H](O)[C@H](O)[C@H]1O (some centres unmarked),10.8
4,Cc1ccc(/C=N/N2CCN(Cc3ccccc3)CC2)o1.Cl,12.4
5,O=c1onc(-c2ccccc2)n1-c1cc(Cl)cc(Cl)c1,0.961
6,O=C(NCCOc1cccnc1)c1ccc(OC2CCN(Cc3ccccn3)CC2)cc1,8.2
7,Cc1ccc(C(=O)C(OC(=O)CNC(=O)c2ccc(Cl)cc2)c2ccccc2)cc1 (centres unmarked),-0.769
8,COc1ccc(/C=N/NC(=O)CC#N)cc1Oc1nc(Cl)ncc1F,12.5
9,CCCOc1ccc(Cc2c(O)nc(N)[nH]c2=O)cc1C,11.6
10,O=C(N/N=C/c1c(O)n(CCc2ccc(F)cc2)c(=O)[nH]c1=O)c1ccncc1,6.08
11,CC(=O)NC(CC(=O)Nc1nc(-c2ccc(N(C)S(C)(=O)=O)cc2)cs1)c1ccccc1 (centres unmarked),14.5
12,CC1=CN2C(=N)/C(=C/c3ccc([N+](=O)[O-])o3)C(=O)N=C2S1,15
13,CCOC(=O)CN1C(=O)N[C@@H](c2ccccc2)[C@H](C(C)=O)[C@H]1C,11.7
14,CN(CC(=O)Nc1ccc(Cl)c(S(=O)(=O)N2CCOCC2)c1)C(=O)c1cccs1,0.724
15,CCC(C)[C@H](NC(=O)NCc1ccc(F)cc1)C(=O)O (some centres unmarked),8.27
16,O=C1CC(N2CCN(C/C=C/c3ccccc3)CC2)C(=O)N1CCc1ccccc1 (centres unmarked),-4.01
17,C/C(Cn1nnc([N+](=O)[O-])n1)=N\NC(=O)c1ccccc1O,12.7
18,Cc1cc(NC(=O)COC(=O)c2cccc(O)c2)no1,7.72
19,CCOC(=O)C(NCc1ccc(OC)cc1)(NC(C)=O)C(F)(F)F (centres unmarked),-2.26

row,Compound,"hERG current change (%, negative = inhibition) at 1uM [%]"
1,Cc1c(Cl)c(=O)oc2cc(OC(C)C)ccc12,4.27
2,Cc1cc(=O)oc(C)c1C(=O)N[C@@H](Cc1ccccc1)C(=O)O,13.1
3,CCOC(=O)N1CCN(C(=O)c2cc(COc3ccc4ncccc4c3)on2)CC1,5.66
4,Cc1ccc(OCC(=O)Nc2ccc(O)c(C(=O)O)c2)cc1C,11.3
5,Cc1ccc(C(=O)NNC(=O)CNc2cccc(Cl)c2)cc1,11.7
6,CCOc1ccccc1NC(=S)NC(=O)C1CCCCC1,13.1
7,CCOc1cc(C2Nc3ccccc3C(=O)N2c2ccccc2)ccc1O (centres unmarked),15
8,Cc1ccc(CSc2sc(C(=O)c3ccccc3)c(N)c2C#N)cc1,-1.05
9,CCOC(=O)c1c(C)[nH]c(C(=O)OCC(=O)N2CCCC2=O)c1C,2.87
10,O=C(CCC(=O)NNc1nc2ccccc2c2nc(-c3ccccc3)nn12)NCCCN1CCOCC1,6.29
11,CCn1cc(C(=O)NCCN(C)C)c(=O)c2cc(F)c(N3CCN(C)CC3)cc21.Cl,2.03
12,CN1CCc2nc3ccc(F)cc3c(C(N)=O)c2C1.Cl,3.55
13,O=C(CCN1CCOCC1)NNC(=S)NC(=O)c1ccccc1,18.2
14,Cc1ccc(OCCCC(=O)Nc2ccc(S(=O)(=O)Nc3ccccn3)cc2)cc1,6.87
15,O=C(Nc1cc(=O)c2ccccc2o1)N1CCCCC1,11.5
16,COc1cc2c(cc1OC)CN(C(=O)c1ccc(-c3ccccc3)cc1)CC2,9.14
17,CCN1CCN(c2cc(N3CCCC3)c(F)cc2[N+](=O)[O-])CC1,0.416
18,O=C(CP(=O)(c1ccccc1)c1ccccc1)N1CCCCC1,6.28
